Paper PMC4336329 (PLoS ONE, 2015)
In all, about 310,000 compounds went through this assay and about 2,200 (0.71%) showed an effect of 50% or more. The effect is printed as a negative number. The list shows a part of the results.

These compounds were tested against human ether-à-go-go-related gene (hERG) potassium channel (human, UniProt Q12809) (assay: primary screen, population patch clamp on CHO cells stably expressing hERG).
Chain of human ether-à-go-go-related gene (hERG) potassium channel (Q12809 whole entry, looked up): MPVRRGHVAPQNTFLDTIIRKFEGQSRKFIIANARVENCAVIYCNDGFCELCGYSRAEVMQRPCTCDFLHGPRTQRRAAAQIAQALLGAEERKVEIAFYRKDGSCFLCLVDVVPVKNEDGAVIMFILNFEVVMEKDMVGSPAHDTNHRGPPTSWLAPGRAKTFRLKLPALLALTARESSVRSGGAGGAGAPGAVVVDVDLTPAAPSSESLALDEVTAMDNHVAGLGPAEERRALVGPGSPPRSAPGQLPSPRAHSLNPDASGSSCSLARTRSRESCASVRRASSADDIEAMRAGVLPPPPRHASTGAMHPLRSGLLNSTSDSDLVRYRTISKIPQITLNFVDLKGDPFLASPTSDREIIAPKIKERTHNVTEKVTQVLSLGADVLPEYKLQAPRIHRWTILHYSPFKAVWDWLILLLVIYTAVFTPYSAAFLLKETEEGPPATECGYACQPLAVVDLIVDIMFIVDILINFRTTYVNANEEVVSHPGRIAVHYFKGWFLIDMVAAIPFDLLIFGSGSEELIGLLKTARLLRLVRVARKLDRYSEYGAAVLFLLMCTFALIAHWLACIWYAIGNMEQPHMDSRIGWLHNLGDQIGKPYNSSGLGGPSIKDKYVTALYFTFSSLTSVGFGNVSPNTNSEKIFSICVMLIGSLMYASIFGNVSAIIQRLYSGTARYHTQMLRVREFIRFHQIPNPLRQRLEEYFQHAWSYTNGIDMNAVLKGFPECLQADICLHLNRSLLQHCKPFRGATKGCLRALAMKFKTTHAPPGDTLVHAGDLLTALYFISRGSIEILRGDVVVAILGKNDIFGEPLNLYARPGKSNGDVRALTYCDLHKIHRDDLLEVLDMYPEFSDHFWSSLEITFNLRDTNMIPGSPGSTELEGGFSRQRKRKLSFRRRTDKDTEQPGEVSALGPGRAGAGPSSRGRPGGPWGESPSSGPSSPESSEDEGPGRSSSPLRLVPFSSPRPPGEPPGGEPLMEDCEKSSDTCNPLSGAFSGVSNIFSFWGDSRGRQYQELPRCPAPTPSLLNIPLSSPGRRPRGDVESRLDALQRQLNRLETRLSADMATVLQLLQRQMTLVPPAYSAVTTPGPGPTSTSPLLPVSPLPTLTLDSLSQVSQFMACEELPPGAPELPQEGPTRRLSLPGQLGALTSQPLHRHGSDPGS

Row | SMILES | hERG current change (%, negative = inhibition) at 1uM
1 | Cc1ccc(NC(=O)CCNC(=O)c2ccc([N+](=O)[O-])cc2)cc1S(=O)(=O)N(C)C | -10.4%
2 | Cc1ccc2cc(CN(CCN3CCCC3)C(=O)Nc3ccccc3)c(=O)[nH]c2c1C | 1.66%
3 | COc1ccc(CCN(C)CC(=O)Nc2cc(C)nc3ccccc23)cc1OC.O=C(O)C(=O)O | 13%
4 | C=CCNC(=O)NC(=O)COC(=O)CC(NC(N)=O)c1ccc(Cl)cc1 (stereo not drawn) | 2.04%
5 | COc1ccccc1CCNS(=O)(=O)c1cn(C)nc1C | 5.43%
6 | COc1ccc(Nc2nc(N)c([N+](=O)[O-])c(NCc3ccccc3)n2)cc1 | 8.62%
7 | CCN1CCN(c2nc(-c3cccnc3)nc3ccccc23)CC1.Cl | -18.4%
8 | O=C(Nc1cc(F)ccc1F)C1CCCN1S(=O)(=O)c1cccc2nsnc12 (stereo not drawn) | 8.38%
9 | CC1(C)CC(NC(=O)c2sc3cc(Cl)ccc3c2Cl)CC(C)(C)N1 | 5.23%
10 | Cc1ccc(-n2[nH]c(C)c(C=Nc3ccc(S(=O)(=O)N4CCOCC4)cc3)c2=O)c(C)c1 | 0.57%
11 | Clc1ccc(-c2cc(-c3ccccc3)on2)cc1 | 11.9%
12 | COc1ccc(/C(O)=C2/C(=O)C(=O)N(CCN3CCNCC3)C2c2cccc([N+](=O)[O-])c2)cc1 (stereo not drawn) | 20.2%
13 | Cc1ccc(C(=O)NCC(=O)O)cc1S(=O)(=O)N1CCCCC1 | 13.9%
14 | O=S(=O)(c1ccc(Cl)cc1)N1CN(CC2CCCO2)c2nc3ccccc3nc21 (stereo not drawn) | 10.1%
15 | COc1ccc(N=Cc2ccc(CNS(=O)(=O)c3ccc(Cl)cc3)o2)cc1 | 11.4%
16 | Cc1cn(CC2COC(C)(C)O2)c(=O)[nH]c1=O (stereo not drawn) | 17.5%
17 | Cc1ccccc1S(=O)(=O)N1[C@@H](c2ccccc2)C(C(=O)O)=CC[C@H]1c1ccc(Cl)cc1 | 17.9%
18 | COc1ccccc1N(Cc1cc2ccc(C)cc2[nH]c1=O)C(C)=O | 4.55%
19 | Cc1nc2ccc3nc(NC(=O)c4ccc5c(c4)OCCO5)sc3c2s1 | 9.46%
20 | O=C1Nc2ccccc2O/C1=C\c1ccccc1 | 13.4%
21 | Cc1ccc(C)c(OCC(=O)N2CCc3ccccc3C2)c1 | 9.13%

Row | SMILES | hERG current change (%, negative = inhibition) at 1uM
22 | CC(C)(C)c1ccc(C(=O)NCC(=O)OCC(=O)N2CCN(S(=O)(=O)c3ccc(Cl)cc3)CC2)cc1 | 16%
23 | CN(C)C(CNC(=O)c1ccc(C2SCCS2)cc1)c1ccccc1 (stereo not drawn) | 15.8%
24 | COc1cccc(N2C(=O)C(Cc3c[nH]c4ccccc34)NC2=S)c1 (stereo not drawn) | 16.7%
25 | Cc1cccc(NS(=O)(=O)c2ccccc2)n1 | -5.76%
26 | O=c1[nH]c(O)c(C=Nc2ccccc2[N+](=O)[O-])c(=O)[nH]1 | 11.2%
27 | CC(=O)OCC(=O)C1(O)CCC2C3CCC4=CC(=O)C=CC4(C)C3C(O)CC21C (stereo not drawn) | 8.87%
28 | COc1ccc(C(=O)Nn2c(SCc3cccc([N+](=O)[O-])c3)nc3ccccc3c2=O)cc1 | 16.6%
29 | CC(=O)Nc1ccc(NC(=O)C(=O)NCC(c2ccco2)N2CCc3ccccc32)cc1 (stereo not drawn) | 0.613%
30 | COC(=O)c1cc(OC)c(OC)cc1NC(=O)C1CCC(=O)N1S(=O)(=O)c1ccc(C)cc1 (stereo not drawn) | 15.3%
31 | Cc1ccc(C(=O)N(C)CC(=O)Nc2cccc(F)c2)cc1S(=O)(=O)N1CCCCC1 | 7.39%
32 | Cc1c(/C=N/n2cnnc2)c2ccccc2n1CCOc1ccc(Cl)cc1 | 4.48%
33 | COCCN1CCn2c(nc3cc(NS(C)(=O)=O)ccc32)C1 | 1.93%
34 | CCC(=O)c1ccc(OCC(O)CNC(C)c2ccccc2)cc1 (stereo not drawn) | 14.1%
35 | CC(=O)O[C@@H]1[C@@H](OC(C)=O)[C@H](n2ccc3cc([N+](=O)[O-])ccc32)OC[C@@H]1OC(C)=O | 5.46%
36 | CCOc1cc(N2CCOCC2)c(OCC)cc1NC(=O)CN1C(=O)NC2(CCCCC2)C1=O | -6.94%
37 | Cc1cc(Cl)c(OCCOCCN2CCN(C)CC2)c(Br)c1.O=C(O)C(=O)O | 14.3%
38 | CCC(C)N(CCNC(=O)c1ccc(NC2=NC3CS(=O)(=O)CC3S2)cc1)Cc1ccco1 (stereo not drawn) | -7.91%
39 | S=c1[nH]c2ncccc2o1 | -18.9%
40 | CCOc1ccc(OC(=O)c2ccc3c(=O)n4c(nc3c2)CCC4)cc1 | 4.54%
41 | COc1ccc(-c2nnn(CC(=O)N(CCN3CCOCC3)C(C(=O)NC3CCCC3)c3ccco3)n2)cc1 (stereo not drawn) | -1.93%
42 | CC(=O)NCCC1CCN(C(=O)C2CCC(=O)N(C3CCCC3)C2)CC1 (stereo not drawn) | 14.9%

Row | SMILES | hERG current change (%, negative = inhibition) at 1uM
43 | Nc1c(-c2ccccc2)c(CSc2nc3ccccc3[nH]2)nn1-c1cccc(Cl)c1 | 9.65%
44 | COc1ccc(OCCNC(=O)/C=C/c2ccc([N+](=O)[O-])cc2)cc1 | -59.9%
45 | COc1ccc(CCNC(=O)Cn2cccc2C(=O)c2ccccc2)cc1OC | 16%
46 | COC(=O)[C@]1(C)CCC[C@@]2(C)C3CC[C@@]4(C)C[C@]3(CCC21)CC4=NO (stereo partly drawn) | -2.03%
47 | Cc1ccc(C(=O)Nc2nnc(-c3ccncc3)o2)cc1 | -0.2%
48 | CCc1noc(C)c1C(=O)N1CCN(S(=O)(=O)c2ccc(Br)cc2Cl)CC1 | 6.27%
49 | CC(NC(=O)c1cc(S(=O)(=O)N2CCOCC2)ccc1N1CCCC1)c1ccc(Cl)c(Cl)c1 (stereo not drawn) | 9.83%
50 | O=C(Nc1ccnn1C1CCN(Cc2cccc(OCCO)c2)CC1)C1CCOC1 (stereo not drawn) | 2.06%
51 | COc1cc(Cl)ccc1NC(=S)N(CCCN1CCOCC1)Cc1cn(C)c2ccccc12 | 4.08%
52 | Cc1ccc(S(=O)(=O)N2CCCCC2)cc1NC(=O)Nc1ccc(Cl)cc1Cl | 13.2%
53 | Cc1ccc(C)c(C2C(=O)c3ccccc3C2=O)c1 | -0.022%
54 | COCc1n[nH]c(=S)n1-c1ccccc1 | 12.1%
55 | CCc1nn(C(CC)C(=O)NCc2cccs2)c(=O)c2cc3occc3n12 (stereo not drawn) | 4.67%
56 | CCN(CC(=O)Nc1cc(Cl)ccc1C)C(=O)c1ccc2c(c1)NC(=O)C(C)S2 (stereo not drawn) | -1.02%
57 | O=C(O)CCCN1C(=O)C(=O)/C(=C(/O)c2ccccc2)C1/C=C/c1ccccc1 (stereo not drawn) | 1.2%
58 | O=C(N/C(=C/c1ccc(Br)cc1)C(=O)N1CCOCC1)c1cccs1 | 7.16%
59 | Cc1ccc(C(=O)N/C(=C/c2ccco2)C(=O)Nc2cccc(C(=O)O)c2)cc1 | 14%
60 | Cc1cccc(NC(=O)Cn2cnc(S(=O)(=O)N3CCCC3)c2)c1C | 13.8%
61 | CC1CCN(C(=O)C2CC(c3ccc(F)cc3)=NO2)CC1 (stereo not drawn) | -5.77%
62 | Cc1ccc(NC2=NCC(=O)N2C2CCCC2)cc1C.Cl | 17.4%
63 | COc1ccc(C(=O)c2ccc(Br)cc2)c2ccccc12 | 0.857%

Row | SMILES | hERG current change (%, negative = inhibition) at 1uM
64 | NC(=O)C[n+]1cccc(CNC(=O)c2ccc(OC(F)F)cc2)c1.[Cl-] | 4.72%
65 | O=C(CSc1nnc(-c2cccnc2)n1C1CCCCC1)NC1CCCCC1 | -6.66%
66 | O=C(C1CCC1)N1CCN(c2ccc(Cl)cc2)CC1 | 6.35%
67 | CC(=O)Nc1c(C(=O)c2ccccc2)oc2ccccc12 | -1.57%
68 | COc1cc(N)ccc1Cc1ccc(N)cc1OC | 7.93%
69 | COc1cccc(NC(=O)c2oc3ccccc3c2NC(C)=O)c1 | 4.26%
70 | CC1=C(C(=O)OCC2CCCO2)C(c2ccncc2)C2=C(CC(C)(C)CC2=O)N1 (stereo not drawn) | 1.85%
71 | Cc1c(C)n(C)c2ccc(C(=O)NCCN3CCOCC3)cc12 | 16.3%
72 | O=c1/c(=C/c2ccco2)sc2n1CN(c1cccc(Br)c1)CN=2 | 12.4%
73 | CCc1ccc(N(C(=O)Cn2nnc(-c3ccccc3)n2)C(C(=O)NC2CCCCC2)c2ccccn2)cc1 (stereo not drawn) | 8%
74 | COc1ccc(C)cc1S(=O)(=O)N1CCN(C(=O)c2ncoc2-c2ccccc2F)CC1 | 14.7%
75 | CCCn1c(=O)c2sccc2n2c(CCCC(=O)NCc3ccco3)nnc12 | 7.9%
76 | Cc1ccc(NC(=O)C2CC(=O)OC23CCOC(C)(C)C3)cc1 (stereo not drawn) | -0.054%
77 | O=C(Cn1c(=O)n(CCc2c[nH]c3ccccc23)c(=O)c2cccnc21)Nc1ccccc1F | 7.99%
78 | C#CCN1CCN(c2cccc(C(F)(F)F)c2)CC1 | -3.97%
79 | CN(Cc1ccc(F)cc1)Cc1nc(CCc2ccccc2)no1 | 3.55%
80 | COc1ccc(Oc2nc(SC)nc3ccsc23)cc1 | 15.3%
81 | CCOC(=O)CCC(=O)Nc1cc(S(=O)(=O)N2CCOCC2)ccc1N1CCCCC1 | -3.23%
82 | CC(=O)Nc1cccc(C(=O)Nc2cccc(S(=O)(=O)NCc3ccco3)c2)c1 | 2.38%
83 | CC(=O)Nc1ccc(NC(=O)C(C)OC(=O)CCCN2C(=O)c3cccc4cccc(c34)C2=O)cc1 (stereo not drawn) | 8.12%
84 | O=C(CCC1COc2ccccc2O1)Nc1cccnc1 (stereo not drawn) | 5.48%
